Consider 55 compounds from article PMC4336329 (PLoS ONE, 2015).

The structures appear in SMILES notation. The whole screen tested about 310,000 compounds, of which about 14,000 (4.5%) showed an effect of 50% or more. Effects have a minus sign here. Some of the results follow.
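Further: peak tail current of the secondary pulse compared with the same well before compound.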

In the assay the target is human ether-à-go-go-related gene (hERG) potassium channel (human, UniProt Q12809). Description: primary screen, population patch clamp on CHO cells stably expressing hERG.
Sequence of human ether-à-go-go-related gene (hERG) potassium channel (Q12809 whole entry, looked up): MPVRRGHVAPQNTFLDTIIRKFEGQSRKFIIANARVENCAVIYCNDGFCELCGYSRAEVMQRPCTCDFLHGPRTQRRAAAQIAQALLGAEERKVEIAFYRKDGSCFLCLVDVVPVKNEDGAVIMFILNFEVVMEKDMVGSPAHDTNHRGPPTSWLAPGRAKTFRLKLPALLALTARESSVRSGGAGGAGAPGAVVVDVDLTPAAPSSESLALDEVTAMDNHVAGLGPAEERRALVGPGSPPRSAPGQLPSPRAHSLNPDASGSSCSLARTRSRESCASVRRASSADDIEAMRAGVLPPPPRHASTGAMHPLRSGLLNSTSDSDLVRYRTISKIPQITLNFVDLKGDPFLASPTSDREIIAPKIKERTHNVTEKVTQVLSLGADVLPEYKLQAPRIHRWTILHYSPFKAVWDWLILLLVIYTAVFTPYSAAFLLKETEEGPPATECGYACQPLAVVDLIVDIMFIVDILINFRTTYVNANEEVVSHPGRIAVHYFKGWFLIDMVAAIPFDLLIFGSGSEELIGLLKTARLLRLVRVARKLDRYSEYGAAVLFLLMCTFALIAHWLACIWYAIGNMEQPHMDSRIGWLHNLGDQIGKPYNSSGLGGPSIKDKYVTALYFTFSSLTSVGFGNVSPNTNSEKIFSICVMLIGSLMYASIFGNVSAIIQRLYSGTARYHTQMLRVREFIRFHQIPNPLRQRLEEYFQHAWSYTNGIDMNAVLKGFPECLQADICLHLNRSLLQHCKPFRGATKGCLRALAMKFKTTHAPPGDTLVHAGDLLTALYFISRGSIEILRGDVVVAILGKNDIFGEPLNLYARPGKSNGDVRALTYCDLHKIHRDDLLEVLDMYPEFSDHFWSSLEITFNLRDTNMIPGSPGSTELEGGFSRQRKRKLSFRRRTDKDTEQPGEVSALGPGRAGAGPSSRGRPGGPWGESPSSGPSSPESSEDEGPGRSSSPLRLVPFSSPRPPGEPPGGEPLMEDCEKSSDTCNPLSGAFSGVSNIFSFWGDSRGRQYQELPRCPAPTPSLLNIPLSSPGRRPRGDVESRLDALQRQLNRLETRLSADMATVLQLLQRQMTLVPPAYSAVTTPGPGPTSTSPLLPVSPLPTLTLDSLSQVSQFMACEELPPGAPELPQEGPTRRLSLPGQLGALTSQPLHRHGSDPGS
Turning to `CCCNC(=O)c1cc(-c2ccc(Br)cc2)on1`, the “hERG current change (%, negative = inhibition) at 10uM” value is 11.6%.
`Cc1ccc(CNC(=O)CCCc2nc3ccccc3s2)cc1`: the “hERG current change (%, negative = inhibition) at 10uM” value is recorded as -16.5%.
On to `COc1ccccc1NC(=O)c1nnn(CC(=O)Nc2cc(C)cc(C)c2)c1N`, for which the “hERG current change (%, negative = inhibition) at 10uM” value worked out at 17%.
The result for `COC(=O)c1sc2nc[nH]c(=O)c2c1C` reads 14.5%; that for `COc1ccc(OC)c(NS(=O)(=O)c2ccc3c(c2)C(C)(C)C(=O)N3C)c1`, -3.88%.
Take `Cc1cc(C(=O)N2CCN(c3ncccn3)CC2)c2cc(F)ccc2n1`: the “hERG current change (%, negative = inhibition) at 10uM” value is recorded as 3.88%.
As to `CCOC(=O)N1CCN(C(=O)COC(=O)CNC(=O)c2ccc(C)cc2)CC1`, the “hERG current change (%, negative = inhibition) at 10uM” value was -5.95%.
As to `Cc1ccccc1C(=O)Nc1ccccc1C(=O)NCc1ccccc1`, the “hERG current change (%, negative = inhibition) at 10uM” value is given as -26.9%.
The result for `Fc1ccc(F)c(NC2=NCCCCC2)c1` reads 13.8%; that for `Cc1oc2cc3oc(=O)c4c(c3cc2c1C)CCC4`, -15.4%; that for `C=CCNC(=O)COC(=O)c1cc(S(=O)(=O)N2CCOCC2)ccc1N1CCCCC1`, -22.6%.
Consider `CC1CCCN(S(=O)(=O)c2ccc(NC(=O)CCN3C(=O)c4ccccc4C3=O)cc2)C1` (stereo not shown), for which the “hERG current change (%, negative = inhibition) at 10uM” value is recorded as -6.72%.
As to `CCCCCC(O)(CCN1CCCCC1)c1ccc(OCC)cc1.Cl` (stereo not shown), the “hERG current change (%, negative = inhibition) at 10uM” value is on record as -77.1%.
As for `CC(/C=C(\NC(=O)c1ccccc1)C(=O)N=Nc1c(O)[nH]c2ccc(C)cc12)=C\c1ccccc1`, the “hERG current change (%, negative = inhibition) at 10uM” value was 4.93%.
For the compound `Cc1cc(C)n2nc(C(=O)Nc3cccc(S(=O)(=O)N4CCCC4)c3)nc2n1`, the “hERG current change (%, negative = inhibition) at 10uM” value was -2.92%.
For the compound `O=C(Nc1ccccc1Cl)NC1(C(=O)N2CCC(O)CC2)CCCCC1`, the “hERG current change (%, negative = inhibition) at 10uM” value is recorded as 26.2%.
In the case of `CC(C)n1cc(CN2CCC(Oc3ccc(C(=O)N4CCCCC4)cc3)CC2)cn1` it was -31.6%; in that of `Cc1ccc(Nc2nc(C(=O)N3CCC(C(=O)NCc4ccccc4)CC3)cs2)cc1`, -32.7%.
In the case of `Cc1ccc2occ(/C=N/NC(=O)c3ccccc3Br)c(=O)c2c1` it was 10.3%; in that of `Cc1cccc2cc(/C=N/NC(=O)c3ccccc3O)c(Cl)nc12`, -2.17%.
Turning to `COc1ccc(C(=O)NNC(=O)C23CC4CC(CC(C4)C2)C3)c(OC)c1`, the “hERG current change (%, negative = inhibition) at 10uM” value was 11%.
`CSc1nc(=S)n(-c2ccc([N+](=O)[O-])cc2)c(C)c1C(C)=O`: the “hERG current change (%, negative = inhibition) at 10uM” value is listed as -68.3%.
With `COc1ccc(C(=O)NCC(=O)OCCCOC(=O)CNC(=O)c2ccc(OC)c(OC)c2)cc1OC`, the “hERG current change (%, negative = inhibition) at 10uM” value was 0.22%.
In the case of `O=C(Nc1ccc(-n2cnnn2)cc1)c1cccc(S(=O)(=O)N2CCCC2)c1` it was -19.1%; in that of `CCC(=O)Nc1ccc(C(=O)CSc2nnc(-c3ccccc3F)n2C2CC2)cc1`, 18.7%; in that of `O=[N+]([O-])c1cc([N+](=O)[O-])c(Oc2ccc(Cl)c3cccnc23)cc1NN1CCCCC1`, 3.6%.
Consider `Cc1ccc(S(=O)(=O)N2CCN(C(=O)C(C)Cn3nc(C)c(C)c3C)CC2)cc1C` (stereo not shown), for which the “hERG current change (%, negative = inhibition) at 10uM” value is reported as -8.42%.
For the compound `COc1ccc(N2CCN(C(=S)NCc3ccccc3)CC2)cc1`, the “hERG current change (%, negative = inhibition) at 10uM” value was 15.3%.
`O=C(O)c1ccc(N/N=C/c2cn(Cc3ccccc3F)c3ccccc23)cc1`: the “hERG current change (%, negative = inhibition) at 10uM” value is -3.35%.
In the case of `NS(=O)(=O)c1ccc(CCNC(=O)COC(=O)c2nc(Cl)ccc2Cl)cc1` it was 10.1%.
As to `CCN(CC)c1ccc(NC(=O)CC2Oc3ccccc3NC2=O)c(C)c1` (stereo not shown), the “hERG current change (%, negative = inhibition) at 10uM” value is listed as -12.9%.
For the compound `Cc1ccc(C)c(S(=O)(=O)N2CCN(C(=O)Cc3ccsc3)CC2)c1`, the “hERG current change (%, negative = inhibition) at 10uM” value is on record as -33.1%.
With `N#C/C(=C\c1cccc([N+](=O)[O-])c1)c1nnc2n1CCCCC2`, the “hERG current change (%, negative = inhibition) at 10uM” value is recorded as -20.7%.
Take `O=C(COC(=O)c1ccc(Cl)c(S(=O)(=O)N2CCCC2)c1)NC1CCCC1`: the “hERG current change (%, negative = inhibition) at 10uM” value is listed as -21.6%.
With `CC(=O)c1ccc(N2CCN(C(=O)CCCn3c(=O)[nH]c4ccsc4c3=O)CC2)cc1`, the “hERG current change (%, negative = inhibition) at 10uM” value was determined as 13.9%.
Take `CC(=O)c1ccc(NC(=O)C(C)NCc2ccccc2Cl)cc1` (stereo not shown): the “hERG current change (%, negative = inhibition) at 10uM” value is -0.834%.
Consider `Cc1nn(-c2ccccc2)c(C)c1/C=C/C(=O)OCC(=O)Nc1ncc(C(F)(F)F)cc1Cl`, for which the “hERG current change (%, negative = inhibition) at 10uM” value is on record as -12.9%.
Turning to `O=C(NC(Cc1ccc2c(c1)OCO2)C(=O)N1CCCC1C(=O)O)c1ccccc1` (stereo not shown), the “hERG current change (%, negative = inhibition) at 10uM” value is 3.57%.
With `COc1cc(/C=N/NC(N)=S)ccc1OC(=O)c1ccc(C)cc1`, the “hERG current change (%, negative = inhibition) at 10uM” value was -2.13%.
In the case of `CCN(C(=O)CN1C(=O)NC2(CCc3ccccc32)C1=O)C1CCS(=O)(=O)C1` (stereo not shown) it was 10.6%.
In the case of `COc1ccc(OCCCC(=O)NCC(C)C)cc1`, the “hERG current change (%, negative = inhibition) at 10uM” value is -0.98%.
`NNC(=O)c1ccc(CSc2cccc3cccnc23)cc1`: the “hERG current change (%, negative = inhibition) at 10uM” value is 11.1%.
Consider `Cc1cccc(N2CC(C(=O)Nc3nnc(SCC(=O)Nc4cc(C)on4)s3)CC2=O)c1` (stereo not shown), for which the “hERG current change (%, negative = inhibition) at 10uM” value was 23%.
With `COc1ccc(N2CCN(c3ncccc3C#N)CC2)cc1`, the “hERG current change (%, negative = inhibition) at 10uM” value was 13.5%.
In the case of `Cc1ccccc1-c1nnc(SC(C)C(=O)NC2CCCC2)o1` (stereo not shown), the “hERG current change (%, negative = inhibition) at 10uM” value is -49.4%.
With `CC(Oc1ccc(NC(=O)c2ccco2)cc1)C(=O)N1c2ccccc2CC1C` (stereo not shown), the “hERG current change (%, negative = inhibition) at 10uM” value is listed as -9.6%.
Take `COc1ccc(C(=O)NCCCNC(=O)c2cnccn2)cc1Br`: the “hERG current change (%, negative = inhibition) at 10uM” value is on record as -0.353%.
The result for `CCc1ccccc1NC(=O)CCS(=O)(=O)c1ccc(C)cc1` reads 8.96%; that for `COc1ccc(C(=S)N2CCCCCC2)cc1`, 2.63%.
As for `CC(=O)OCC1CCCC2=C(C)C(=O)CCC21COC(C)=O` (stereo not shown), the “hERG current change (%, negative = inhibition) at 10uM” value was -31.9%.
For `O=C(NNC(=O)c1ccccc1C(=O)O)c1cc2ccccc2o1`, the “hERG current change (%, negative = inhibition) at 10uM” value is reported as 7.87%.
As to `CCOC(=O)N1CCC(NC(=O)C2CCN(S(=O)(=O)N3CCCC3)CC2)CC1`, the “hERG current change (%, negative = inhibition) at 10uM” value worked out at 10.9%.
Regarding `N#Cc1ccc(OCc2noc(-c3ccsc3)n2)cc1`, the “hERG current change (%, negative = inhibition) at 10uM” value was 8.51%.
`O=C(NC1CCN(c2ncccn2)CC1)c1ccccc1Cl`: the “hERG current change (%, negative = inhibition) at 10uM” value is reported as 20.4%.
Regarding `COc1cccc(-c2cc(C(=O)O)[nH]n2)c1`, the “hERG current change (%, negative = inhibition) at 10uM” value amounted to 17.5%.
